Assay results taken from the supplement of paper PMC4967469.
By IC50 is meant the dose at which the fit gives 50% viability; a limit (>, <) means that the fit lies beyond the doses tested. For AUC the same curve is integrated over the 256-fold range of doses and scaled to a fraction; it is 1 without any effect and falls as sensitivity rises. For some assays here: Where the top dose is marked as inferred, it is not printed in the source and was worked back from the curve model.

Key:
Assay in all cases: Viability of human cancer cell lines after 72 h of drug (GDSC screen)
GW 441756 = compound: Cn1cc(/C=C2\C(=O)Nc3cccnc32)c2ccccc21 [GW 441756]; settings: top dose 2 µM; top dose inferred
Protocol: (§1)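 Human cancer cell lines in 384-well plates, medium with 10% serum, drug for 72 h over a 256-fold dose range (nine 2-fold or five 4-fold steps up to the top dose). Adherent lines were fixed and stained with the nucleic acid dye Syto60, suspension lines read with resazurin; signal relative to control wells, capped at 0 and 100%. One two-parameter sigmoid per drug and line, fitted in a mixed model over all curves with the slope shared within a line.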

piperlongumine = compound: COc1cc(/C=C/C(=O)N2CCC=CC2=O)cc(OC)c1OC [piperlongumine]; settings: top dose 10 µM
Protocol: as §1

ABT-263 = compound: CC1(C)CCC(c2ccc(Cl)cc2)=C(CN2CCN(c3ccc(C(=O)NS(=O)(=O)c4ccc(N[C@H](CCN5CCOCC5)CSc5ccccc5)c(S(=O)(=O)C(F)(F)F)c4)cc3)CC2)C1 [ABT-263]; settings: top dose 2 µM; top dose inferred
Protocol: as §1

PIK-93 = compound: CC(=O)Nc1nc(C)c(-c2ccc(Cl)c(S(=O)(=O)NCCO)c2)s1 [PIK-93]; settings: top dose 20 µM
Protocol: as §1

Row | Cell Line | AUC (GW 441756) | IC50 (GW 441756) [µM] | AUC (piperlongumine) | IC50 (piperlongumine) [µM] | AUC (ABT-263) | IC50 (ABT-263) [µM] | AUC (PIK-93) | IC50 (PIK-93) [µM]
1 | H4 (glioma, adherent) | 0.968 | > 2 | 0.746 | 3.14 | 0.986 | > 2 | 0.938 | > 20
2 | NCI-H2291 (lung adenocarcinoma, adherent) | 0.984 | > 2 | 0.923 | > 10 | 0.933 | > 2 | 0.983 | > 20
3 | NCI-H2347 (lung adenocarcinoma, adherent) | 0.97 | > 2 | 0.803 | 6.25 | 0.939 | > 2 | 0.851 | > 20
4 | HARA (lung squamous cell carcinoma, adherent) | 0.945 | > 2 | 0.978 | > 10 | 0.922 | > 2 | 0.753 | 7.68
5 | HSC-2 (head and neck, adherent) | 0.989 | > 2 | 0.742 | 2.89 | 0.943 | > 2 | 0.866 | 15.5
6 | TT2609-C02 (thyroid, adherent) | 0.962 | > 2 | 0.974 | > 10 | 0.902 | > 2 | 0.938 | > 20
7 | SK-GT-4 (oesophagus, adherent) | 0.907 | > 2 | 0.83 | 8.5 | 0.872 | > 2 | 0.75 | 7.93
8 | PA-TU-8902 (pancreas, adherent) | 0.984 | > 2 | 0.72 | 2.95 | 0.979 | > 2 | 0.662 | 3.83
9 | LNZTA3WT4 (glioma, adherent) | 0.931 | > 2 | 0.641 | 1.52 | 0.989 | > 2 | 0.877 | 19.4
10 | RCM-1 (large intestine, adherent) | 0.985 | > 2 | 0.956 | > 10 | 0.872 | > 2 | 0.953 | > 20
11 | COLO-680N (oesophagus, adherent) | 0.982 | > 2 | 0.851 | > 10 | 0.975 | > 2 | 0.985 | > 20
12 | TOV-112D (ovary, adherent) | 0.967 | > 2 | 0.807 | 5.19 | 0.848 | 1.51 | 0.751 | 6.62
13 | LOU-NH91 (lung squamous cell carcinoma, adherent) | 0.944 | > 2 | 0.786 | 4.72 | 0.861 | 1.94 | 0.951 | > 20
14 | MDA-MB-231 (breast, adherent) | 0.983 | > 2 | 0.664 | 1.84 | 0.98 | > 2 | 0.986 | > 20
15 | JIMT-1 (breast, adherent) | 0.979 | > 2 | 0.693 | 2.29 | 0.901 | > 2 | 0.886 | > 20
16 | DOK (head and neck, adherent) | 0.953 | > 2 | 0.77 | 5.9 | 0.799 | 1.6 | 0.962 | > 20
17 | OVK-18 (ovary, adherent) | 0.941 | > 2 | 0.687 | 2.22 | 0.965 | > 2 | 0.97 | > 20
18 | KYSE-450 (oesophagus, adherent) | 0.959 | > 2 | 0.861 | 7.69 | 0.973 | > 2 | 0.804 | 9.32
19 | OVTOKO (ovary, adherent) | 0.941 | > 2 | 0.714 | 3.01 | 0.759 | 0.882 | 0.835 | 18.5
20 | CAL-78 (chondrosarcoma, adherent) | 0.842 | 1.71 | 0.802 | 5.76 | 0.937 | > 2 | 0.814 | 13
21 | FU-OV-1 (ovary, adherent) | 0.978 | > 2 | 0.8 | 6.68 | 0.963 | > 2 | 0.832 | 18.7

Row | Cell Line | AUC (GW 441756) | IC50 (GW 441756) [µM] | AUC (piperlongumine) | IC50 (piperlongumine) [µM] | AUC (ABT-263) | IC50 (ABT-263) [µM] | AUC (PIK-93) | IC50 (PIK-93) [µM]
22 | NCI-H650 (lung adenocarcinoma, adherent) | 0.983 | > 2 | 0.763 | 3.95 | 0.986 | > 2 | 0.874 | > 20
23 | NCI-H1568 (lung adenocarcinoma, adherent) | 0.971 | > 2 | 0.796 | 6.02 | 0.97 | > 2 | 0.915 | > 20
24 | IHH-4 (thyroid, semi-adherent) | 0.945 | > 2 | 0.73 | 2.39 | 0.993 | > 2 | 0.896 | 15.9
25 | OACM5-1 (oesophagus, semi-adherent) | 0.986 | > 2 | 0.852 | 9.32 | 0.953 | > 2 | 0.388 | 0.589
26 | Saos-2 (osteosarcoma, adherent) | 0.98 | > 2 | 0.763 | 5.17 | 0.961 | > 2 | 0.981 | > 20
27 | Calu-3 (lung adenocarcinoma, adherent) | 0.976 | > 2 | 0.822 | 7.88 | 0.868 | > 2 | 0.826 | 16.5
28 | HuO9 (osteosarcoma, adherent) | 0.976 | > 2 | 0.779 | 4.54 | 0.6 | 0.242 | 0.842 | 16.4
29 | TOV-21G (ovary, adherent) | 0.972 | > 2 | 0.67 | 1.95 | 0.926 | > 2 | 0.974 | > 20
30 | AU565 (breast, adherent) | 0.72 | 0.57 | 0.782 | 4.7 | 0.944 | > 2 | 0.753 | 7.38
31 | HO-1-u-1 (head and neck, adherent) | 0.979 | > 2 | 0.767 | 3.57 | 0.948 | > 2 | 0.963 | > 20
32 | A2780 (ovary, semi-adherent) | 0.98 | > 2 | 0.867 | 9.52 | 0.964 | > 2 | 0.639 | 3.07
33 | KP-3 (pancreas, adherent) | 0.924 | > 2 | 0.785 | 5.16 | 0.969 | > 2 | 0.86 | > 20
34 | CAPAN-1 (pancreas, adherent) | 0.86 | 1.98 | 0.951 | > 10 | 0.871 | > 2 | 0.941 | > 20
35 | LCLC-103H (large cell lung carcinoma, adherent) | 0.985 | > 2 | 0.853 | 6.73 | 0.982 | > 2 | 0.772 | 7
36 | ME-180 (cervix, adherent) | 0.939 | > 2 | 0.679 | 2.03 | 0.947 | > 2 | 0.747 | 6.65
37 | SW1710 (bladder, adherent) | 0.983 | > 2 | 0.683 | 2.06 | 0.959 | > 2 | 0.693 | 4.42
38 | CCF-STTG1 (glioma, adherent) | 0.922 | > 2 | 0.855 | 8.09 | 0.972 | > 2 | 0.896 | > 20
39 | HEC-1 (endometrium, adherent) | 0.967 | > 2 | 0.722 | 2.6 | 0.93 | > 2 | 0.969 | > 20
40 | BICR10 (head and neck, adherent) | 0.931 | > 2 | 0.844 | 8.84 | 0.753 | 0.761 | 0.953 | > 20
41 | NCI-H727 (lung carcinoid, adherent) | 0.974 | > 2 | 0.847 | > 10 | 0.871 | > 2 | 0.942 | > 20
42 | 22RV1 (prostate, adherent) | 0.894 | > 2 | 0.782 | 5.26 | 0.976 | > 2 | 0.504 | 1.28

Row | Cell Line | AUC (GW 441756) | IC50 (GW 441756) [µM] | AUC (piperlongumine) | IC50 (piperlongumine) [µM] | AUC (ABT-263) | IC50 (ABT-263) [µM] | AUC (PIK-93) | IC50 (PIK-93) [µM]
43 | HT-3 (cervix, adherent) | 0.928 | > 2 | 0.718 | 2.62 | 0.962 | > 2 | 0.905 | > 20
44 | HT-29 (large intestine, adherent) | 0.982 | > 2 | 0.861 | 8.44 | 0.987 | > 2 | 0.792 | 9.04
45 | CAL-39 (cervix, adherent) | 0.98 | > 2 | 0.806 | 5.31 | 0.975 | > 2 | 0.87 | 19.8
46 | SK-MEL-5 (melanoma, adherent) | 0.943 | > 2 | 0.803 | 6.34 | 0.929 | > 2 | 0.978 | > 20
47 | LCLC-97TM1 (large cell lung carcinoma, adherent) | 0.983 | > 2 | 0.802 | 5.49 | 0.983 | > 2 | 0.658 | 3.6
48 | KMH-2 (thyroid, adherent) | 0.974 | > 2 | 0.793 | 4.01 | 0.99 | > 2 | 0.96 | > 20
49 | P12-ICHIKAWA (T-cell lymphoblastic leukaemia, suspension) | 0.994 | > 2 | 0.85 | 5.1 | 0.371 | 0.0601 | 0.485 | 1.15
50 | FLO-1 (oesophagus, adherent) | 0.861 | > 2 | 0.802 | 7.74 | 0.875 | > 2 | 0.681 | 5.08
51 | SNU-61 (large intestine, adherent) | 0.974 | > 2 | 0.983 | > 10 | 0.968 | > 2 | 0.863 | > 20
52 | EMC-BAC-2 (lung adenocarcinoma, adherent) | 0.905 | > 2 | 0.765 | 4.31 | 0.893 | > 2 | 0.647 | 3.45
53 | RH-41 (rhabdomyosarcoma, adherent) | 0.991 | > 2 | 0.661 | 1.61 | 0.726 | 0.48 | 0.935 | > 20
54 | COLO-678 (large intestine, semi-adherent) | 0.94 | > 2 | 0.898 | > 10 | 0.97 | > 2 | 0.952 | > 20
55 | MDA-MB-468 (breast, adherent) | 0.93 | > 2 | 0.715 | 2.46 | 0.92 | > 2 | 0.85 | 14.2
56 | SW626 (ovary, adherent) | 0.98 | > 2 | 0.781 | 4.99 | 0.85 | 1.98 | 0.856 | > 20
57 | HCC1954 (breast, adherent) | 0.965 | > 2 | 0.741 | 3.49 | 0.961 | > 2 | 0.888 | > 20
58 | CADO-ES1 (Ewing sarcoma, suspension) | 0.988 | > 2 | 0.84 | 7.06 | 0.922 | > 2 | 0.582 | 2.11
59 | MES-SA (uterus, adherent) | 0.963 | > 2 | 0.823 | 4.79 | 0.992 | > 2 | 0.992 | > 20
60 | COLO-679 (melanoma, adherent) | 0.985 | > 2 | 0.766 | 4.12 | 0.985 | > 2 | 0.909 | > 20
61 | MEL-JUSO (melanoma, adherent) | 0.944 | > 2 | 0.75 | 3.61 | 0.977 | > 2 | 0.715 | 5.48
